Measurements: article PMC4336329 (PLoS ONE, 2015)
The campaign covered roughly 310,000 compounds. About 2,200 (0.71%) showed an effect of 50% or more. Effects have a minus sign here. Some of the results follow.

biological target: human ether-à-go-go-related gene (hERG) potassium channel (human, UniProt Q12809); test: primary screen, population patch clamp on CHO cells stably expressing hERG
Sequence (Q12809 whole entry, looked up): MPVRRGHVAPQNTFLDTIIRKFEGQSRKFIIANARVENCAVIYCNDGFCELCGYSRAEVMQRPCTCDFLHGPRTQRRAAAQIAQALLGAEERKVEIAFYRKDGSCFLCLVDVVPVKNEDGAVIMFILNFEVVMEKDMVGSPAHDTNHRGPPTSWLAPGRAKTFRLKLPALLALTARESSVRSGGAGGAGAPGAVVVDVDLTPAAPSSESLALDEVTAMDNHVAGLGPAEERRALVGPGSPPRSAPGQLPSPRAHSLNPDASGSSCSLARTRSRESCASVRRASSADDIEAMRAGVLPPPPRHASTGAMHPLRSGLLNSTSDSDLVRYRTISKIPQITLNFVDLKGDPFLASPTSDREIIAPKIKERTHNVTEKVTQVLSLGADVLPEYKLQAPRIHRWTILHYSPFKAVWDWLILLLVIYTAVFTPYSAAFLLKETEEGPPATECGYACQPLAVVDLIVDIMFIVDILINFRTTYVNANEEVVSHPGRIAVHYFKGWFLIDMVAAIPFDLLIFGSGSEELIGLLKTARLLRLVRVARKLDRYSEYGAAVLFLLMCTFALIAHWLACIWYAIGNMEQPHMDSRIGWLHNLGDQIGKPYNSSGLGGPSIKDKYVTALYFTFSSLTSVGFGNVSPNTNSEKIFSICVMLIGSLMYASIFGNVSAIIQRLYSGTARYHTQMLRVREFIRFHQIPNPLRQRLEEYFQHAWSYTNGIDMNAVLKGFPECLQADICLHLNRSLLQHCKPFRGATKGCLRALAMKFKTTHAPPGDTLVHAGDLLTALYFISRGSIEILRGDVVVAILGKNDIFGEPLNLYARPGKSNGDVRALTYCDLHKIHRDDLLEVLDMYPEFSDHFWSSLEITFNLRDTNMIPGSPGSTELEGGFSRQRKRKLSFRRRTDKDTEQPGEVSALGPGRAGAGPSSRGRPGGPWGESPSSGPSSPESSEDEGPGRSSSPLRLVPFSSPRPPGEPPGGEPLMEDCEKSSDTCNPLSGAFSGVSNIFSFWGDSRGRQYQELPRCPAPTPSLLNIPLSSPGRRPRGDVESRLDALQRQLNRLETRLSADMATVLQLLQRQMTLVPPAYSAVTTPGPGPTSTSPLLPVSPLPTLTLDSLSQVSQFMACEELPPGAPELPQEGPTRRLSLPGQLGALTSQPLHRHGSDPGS

Structure (SMILES)	hERG current change (%, negative = inhibition) at 1uM [%]
C/C(=N\NC(=O)c1n[nH]c2c1CCC2)c1cccs1	14.2
Cc1cccc(C(=O)Nc2ccc3c(c2)CC2(C(=O)N(C)C(=O)N(C)C2=O)C2CCCN32)c1 (stereo not shown)	15.1
CCCC/C(C)=N/NC(=O)C(=O)NCCc1ccccc1	6.75
CC1CCCN(CC(O)COc2ccc(-c3ccccc3)cc2)C1 (stereo not shown)	-57.8
Cc1ccc(-c2nc(=S)c3c(n2Cc2cccnc2)CC(C)(C)OC3)cc1	12.2
Cc1ccc(NC(=O)CCC(=O)NNC(=O)c2ccccc2Cl)c(C)c1	9.61
c1ccc(-c2nc(C3CCCCC3)no2)cc1	6.95
COc1cc(/C=N/N2C(C)CCCC2C)cc(OC)c1O (stereo not shown)	9.22
CC(C)(C)CNC(=O)c1ccc2c(c1)S(=O)(=O)c1cc(Cl)ccc1C2=O	12.6
O=C(NCc1ccc(Cl)cc1)c1ccc2c(=O)n(CC3CCCO3)c(=S)[nH]c2c1 (stereo not shown)	11.9
CCOC(=O)C1(CCc2ccccc2)CCN(Cc2cc(OC)c(OC)cc2OC)CC1	-68.1
CC(OC(=O)CCCN=C1NS(=O)(=O)c2ccccc21)C(=O)N(C)c1ccccc1 (stereo not shown)	6.26
Cc1ccccc1Cn1c(=O)n(CCC(=O)NCc2ccc3c(c2)OCO3)c(=O)c2ccccc21	16.7
O=C(NCCCN1CCN(c2ccccc2F)CC1)C1CCN(S(=O)(=O)c2cccs2)CC1	-32.2
Cl.NCCOc1ccccc1OCCN	-4.63
COC(=O)C1(C#N)C(c2ccccc2)C1(C(=O)OC)C(=O)OC (stereo not shown)	13.9
CCCc1nnc(NC(=O)Cn2cnc3ccccc3c2=O)s1	10.9
CCOc1cc(N2CCOCC2)c(OCC)cc1NC(=O)CN1CCCC1	5.58
CCN(C(=O)COC(=O)c1ccc(C)c(S(=O)(=O)N2CCOCC2)c1)C1CCS(=O)(=O)C1 (stereo not shown)	4.59
Cc1nnc(N/N=C/c2ccc(-c3ccc(Br)cc3)o2)n1N.Cl	10.3
COc1ccccc1OCCn1nnc2ccccc21	11
CN(C)c1ccc(/C=C/C(=O)c2ccc3c(c2)OCO3)cc1	13.7
COc1ccc(C2(C)NC(=O)N(CC(=O)NCc3ccccc3F)C2=O)cc1 (stereo not shown)	9.8

Structure (SMILES)	hERG current change (%, negative = inhibition) at 1uM [%]
N#Cc1cc2c(nc1SCc1nc3ccccc3[nH]1)CCC2	-0.485
N#CC(C#N)=Cc1ccc(N2CCOCC2)cc1	5.01
Cc1cc(C)c(NC(=O)c2cc(C(=O)O)ccc2C(=O)O)c([N+](=O)[O-])c1	12.5
COCCOCC(=O)Nc1ccc(S(=O)(=O)Nc2cc(C)nc(C)n2)cc1	14.6
COc1ccc(S(=O)(=O)N2CCC(C(=O)N3CCN(C)CC3)CC2)cc1OC	4.86
CCCCn1c(N)c(N(CC(C)C)C(=O)Cn2c(=O)oc3ccccc32)c(=O)[nH]c1=O	11.8
Cc1cc(C)c2nc(N)sc2c1	16.2
O=C(Cc1ccccc1)NNC(=O)C1CCCC1	6.84
COc1ccc(N2CCN(c3nc(Cl)nc(N4CCOCC4)n3)CC2)cc1	-2.57
Cc1ccc(S(=O)(=O)Oc2ccccc2N2C(=O)C3C4CCC(C4)C3C2=O)cc1 (stereo not shown)	6.63
CC(C)Sc1nc2c([nH]c3ccccc32)c(=O)n1C	14.7
Cc1ccc(C(=O)N/N=c2\oc3ccccc3cc2C(N)=O)cc1	-8.21
O=C(/C=C/c1ccccc1Cl)Nc1ccc(S(=O)(=O)Nc2ncccn2)cc1	17.9
CN(c1ccc(C(=O)NCCSCc2ccco2)cc1)S(C)(=O)=O	15
O=C(CNC(=O)c1ccco1)OCc1ccc(Cl)cc1	11.4
C=CCn1c(-c2c[nH]c3ccccc23)n[nH]c1=S	11.7
COc1cc(NC(=O)c2ccco2)c(OC)cc1NC(=O)Nc1ccc(Cl)cc1	1.29
CCn1c(C(O)c2cccc(OC)c2OC)nc2ccccc21 (stereo not shown)	1.9
Cc1nn(-c2ccccc2)c(C)c1C(=O)NCCc1ccccc1	12.2
NC(=O)c1ccc(NC(=O)C2COc3ccccc3O2)cc1 (stereo not shown)	9.76
CCOC(=O)CN1C(=O)C2(OCCCO2)c2ccccc21	4.86
CCOc1ccc(NC(=O)COc2ccc3c(c2)OCO3)cc1	7.57
C=CCNS(=O)(=O)c1sccc1/C=N/O	10.6

Structure (SMILES)	hERG current change (%, negative = inhibition) at 1uM [%]
Cc1ccc(CN2CCN(Cc3ccco3)CC2)cc1.O=C(O)C(=O)O	9.6
CCc1ccc(-c2nc(SCC(=O)NC3CC3)n[nH]2)cc1	9.57
CC(C)c1nc(C(N)=O)c2[nH]c(=O)n(-c3ccc(F)cc3)c2n1	7.46
COc1ccc(-c2csc(NC(C)c3nc4cc(Cl)c(N5CCCCC5)cc4n3CCCO)n2)cc1 (stereo not shown)	16.9
O=C(NNC(=O)c1cc(-c2ccncc2)nc2ccccc12)c1ccccc1O	6.1
COc1cc(OC)cc(-c2c(C#Cc3ccsc3)c3cc(Br)ccc3n2C)c1	12.9
CCCC[n+]1c(C)sc2ccc(C)cc21.[Cl-]	17.7
COc1ccc(Br)cc1S(=O)(=O)NNC(=O)c1c(C)nc2ccccn12	-0.741
O=C(CC12CC3CC(CC(C3)C1)C2)NC1CC1	19.1
O=C(CSc1nnnn1-c1ccc(F)cc1F)Nc1ccccc1F	15.7
O=[N+]([O-])c1ccccc1S(=O)(=O)NCCSc1ccccc1	13.3
O=C(NC(Cc1ccccc1)C(=O)O)c1ccc(S(=O)(=O)N2CCCC2)cc1 (stereo not shown)	-0.336
Cc1ccc(C2=Nc3ccccc3N=C(C(Cl)Cl)C2)cc1	4.33
O=C(NNC(=S)NC(=O)c1ccccc1Cl)c1cccc([N+](=O)[O-])c1	6.85
CC(C)CC1c2[nH]c3ccccc3c2CCN1C(=O)c1cnccn1 (stereo not shown)	9.53
CC1=CC(=O)C=C/C1=C(/c1ccc(O)cc1C)c1ccccc1S(=O)(=O)[O-].[Na+]	13
Cn1c(NC(=O)c2ccco2)cc(=O)n(C)c1=O	8.38
CCOC(=O)/C=C/CN(C(=O)OC(C)(C)C)S(=O)(=O)N1CC=CC1	16.6
O=C(Nc1ccc(Cl)cc1)c1cncs1	11.3
COc1ccc(CCNC(=O)Cn2nnc(-c3cccs3)n2)cc1OC	-1.16
CN(Cc1ccc2nonc2c1)Cc1nc(CC2CC2)no1	5.26
COc1ccc(-n2c(C)cc(/C=C/c3nc(O)c([N+](=O)[O-])c(=O)[nH]3)c2C)cc1	13.7
CCCC[C@@H]1CNC(=S)N1CCCC	9.14

Structure (SMILES)	hERG current change (%, negative = inhibition) at 1uM [%]
CCCOC(=O)NC(CC)COC(=O)Nc1cc(C)ccc1C (stereo not shown)	6.68
CCC1CCCCN1CCCNC(=O)Cn1cc2c(n1)-c1c(oc(C(=O)N3CCCC3)c1C)CC2 (stereo not shown)	18.5
CCc1ccc(S(=O)(=O)Nc2cc3c(cc2C)n(C)c(=O)n3C)cc1	5.77
Cc1cccnc1CCNC(=O)C1CCC(=O)N(Cc2cccc(F)c2)C1 (stereo not shown)	8.44
CCOc1ccc(NC(=O)CSc2nc3[nH]ncc3c(=O)[nH]2)cc1	12.5
Cc1ccc(-c2[nH]c3ccccc3c2SCCNC(=O)c2cc3ccccc3oc2=O)cc1	19.2
CCCC(=O)N(c1ccc2oc(=O)sc2c1)S(=O)(=O)c1cccs1	11.3
CCCn1c(N)c(C(=O)CSc2nnc(Cc3ccccc3)o2)c(=O)n(C)c1=O	6.61
CC(CNC(=O)c1cc(Cl)ccc1[N+](=O)[O-])NC(=O)c1cc(Cl)ccc1[N+](=O)[O-] (stereo not shown)	7.84
COc1c(C)cc(S(=O)(=O)N2CCOCC2)c(C)c1C	14.3
CCCOc1ccc(C(=O)NNC(=S)NC(=O)c2ccccc2)cc1	19.2
N#Cc1cccc(NS(=O)(=O)c2ccccc2Cl)c1	14.9
CCCCOc1ccc(C(=O)Oc2ccc(C)nc2)cc1	17.3
CCCCn1c(O)c(C(CC)=Nc2cccc(C(=O)O)c2)c(=O)[nH]c1=O	1.56
Cc1ccc(C)c2[nH]c(=O)c(C(c3nnnn3CCc3ccccc3)N3CCOCC3)cc12 (stereo not shown)	-25.9
CCCCCn1c2nc3ccccc3nc2c2c(=O)n(CC(C)C)cnc21	11.2
Cl.O.O=C(c1ccc(F)cc1)C1CCN(CCn2c(=S)[nH]c3ccccc3c2=O)CC1	-77.7
Cc1ccc(C(=O)N2CCCCC2C(=O)O)o1 (stereo not shown)	7.85
COc1ccc2[nH]c3c(=O)n(CCCCCC(=O)NCCC(C)C)c(=S)[nH]c3c2c1	3.48
Cc1ccc(C)c2[nH]c(=O)c(CCNC(=O)CC(C)C)cc12	11.3
Cc1cc(C)c(S(=O)(=O)c2ccccc2Cl)c(=O)[nH]1	10.3
CC1CCN(C(=O)CN(C2CCCCC2)S(C)(=O)=O)CC1	2.88
